Measured values taken from PubChem BioAssay AID504339 (National Center for Advancing Translational Sciences (NCATS), 2011).
In all, about 390,000 compounds went through this assay and about 17,000 (4.4%) were called active. Inconclusive results, whose numbers are uncertain, are shown with a selection of clear calls. Calls follow the shape of the dose curve; as a rule, active = well fitted inhibition curve with a large enough effect; inconclusive = small, poorly fitted or top-dose-only effect; inactive = no such curve, though single readings can be large or run the other way. Potencies of inconclusive entries are doubtful fits and often do not repeat.
% is scaled to controls: 0 for no effect and ±100 for the full control effect; potency is read from the fitted curve at half-maximal effect; tags tell the direction and shape of the fitted curve.
Also: nearly all actives have a fitted effect of over 50% in size.

What follows are compounds tested against Lysine-specific demethylase 4A (Homo sapiens) (UniProt O75164) (assay: qHTS Assay for Inhibitors of JMJD2A-Tudor Domain). Conditions: AlphaScreen JMJD2A-Tudor / H3K4me3 peptide binding; activity change, negative = inhibition: at 114 µM (top of the series).
UniProt O75164, sequence (O75164 whole entry, looked up, the tested form may be a part): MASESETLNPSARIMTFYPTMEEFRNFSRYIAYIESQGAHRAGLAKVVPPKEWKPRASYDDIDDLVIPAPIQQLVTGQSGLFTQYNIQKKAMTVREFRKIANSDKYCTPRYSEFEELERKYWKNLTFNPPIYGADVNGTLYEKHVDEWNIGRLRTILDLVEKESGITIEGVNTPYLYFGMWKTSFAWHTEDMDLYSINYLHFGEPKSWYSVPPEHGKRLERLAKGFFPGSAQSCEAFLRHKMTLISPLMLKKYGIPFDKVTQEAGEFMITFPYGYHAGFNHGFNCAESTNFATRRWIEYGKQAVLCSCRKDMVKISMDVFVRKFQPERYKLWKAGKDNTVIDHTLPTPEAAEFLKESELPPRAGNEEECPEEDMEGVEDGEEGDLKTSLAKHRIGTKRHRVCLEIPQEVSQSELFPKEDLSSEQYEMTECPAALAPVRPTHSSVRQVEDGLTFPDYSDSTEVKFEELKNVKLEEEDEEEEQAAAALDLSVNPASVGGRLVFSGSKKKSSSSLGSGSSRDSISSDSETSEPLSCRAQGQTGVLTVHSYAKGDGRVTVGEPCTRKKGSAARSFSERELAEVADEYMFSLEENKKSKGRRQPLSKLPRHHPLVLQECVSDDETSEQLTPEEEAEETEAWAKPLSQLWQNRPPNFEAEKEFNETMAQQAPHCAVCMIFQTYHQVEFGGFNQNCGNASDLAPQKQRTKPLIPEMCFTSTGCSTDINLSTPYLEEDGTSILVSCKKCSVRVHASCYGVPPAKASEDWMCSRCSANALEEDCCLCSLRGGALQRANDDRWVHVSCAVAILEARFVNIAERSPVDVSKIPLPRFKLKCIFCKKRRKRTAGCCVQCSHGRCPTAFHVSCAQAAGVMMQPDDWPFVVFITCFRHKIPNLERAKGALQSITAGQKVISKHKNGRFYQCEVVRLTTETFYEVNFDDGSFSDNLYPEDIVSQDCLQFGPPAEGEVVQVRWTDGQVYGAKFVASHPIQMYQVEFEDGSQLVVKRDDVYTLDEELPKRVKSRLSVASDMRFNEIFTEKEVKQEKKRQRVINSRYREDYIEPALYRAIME
With `CC(C)(C)c1ccc(C(=O)N2CCC(NC(=O)c3ccccc3)CC2)cc1` the “activity change, negative = inhibition” value was inactive: -8.22%. In the case of `C1COCCNCCOCCOCCOCCN1`, the “activity change, negative = inhibition” value is reported as inactive: -15.7%. With `COc1cccc(CNC(=O)c2ccc(NC(=O)C3CCCO3)cc2)c1` (stereo not given) the “activity change, negative = inhibition” value was inactive: -3.68%. In the case of `CCOc1ccc(C(c2c(C)[nH]n(-c3ccccc3)c2=O)c2c(C)[nH]n(-c3ccccc3)c2=O)cc1OC`, the Potency is reported as inconclusive: 11.2 µM [inhibitor, full curve]. For `Cc1ccc(CN2CCN(/N=C/c3ccc(C(F)(F)F)cc3)CC2)cc1`, the Potency was inconclusive: 25.1 µM [inhibitor, single point]. With `O=C(N/N=C/C=C\c1ccco1)c1ccccn1` the Potency was active: 79.4 µM. `CCCNC(=O)OCc1cccnc1Sc1ccc(C)cc1` was tested, and the Potency was active: 44.7 µM. With `CCOc1ccc(C2=Nn3c(nnc3-c3cccnc3)SC2)cc1` the Potency was inconclusive: 100 µM [inhibitor, partial curve]. For `CN1CCN(C(=S)c2cn(Cc3cccc(F)c3)c3ccccc23)CC1`, the Potency was inconclusive: 56.2 µM [inhibitor, partial curve]. With `Cc1cc(=O)oc2cc(OCC(=O)Nc3ccccc3C(N)=O)c(Cl)cc12` the “activity change, negative = inhibition” value was inactive: -21.4%. In the case of `COc1ccc(-c2nc(N)ncc2-c2ccc(Cl)cc2)c(O)c1`, the Potency is reported as inconclusive: 50.1 µM [inhibitor, partial curve]. In the case of `CCOC(=O)c1[nH]c2ccccc2c1NC(=S)Nc1cccc(C)c1C`, the Potency is reported as inconclusive: 112 µM [inhibitor, partial curve, poor fit]. With `COc1ccc(Cn2nnc3c(=O)[nH]c(C(=O)NCCc4ccc(F)cc4)nc32)cc1OC` the Potency was active: 79.4 µM. `O=C(c1cccc(F)c1)N1CCCN(C(=O)c2cccc(F)c2)CC1` was tested, and the “activity change, negative = inhibition” value was inactive: 3.83%. `COc1ccc(CCNC(=O)c2cc(-c3ccco3)nc3ccccc23)cc1` was tested, and the Potency was active: 44.7 µM. With `CCN1CCN(c2oc(-c3ccccc3C)nc2S(=O)(=O)c2ccccc2)CC1` the Potency was inconclusive: 44.7 µM [inhibitor, partial curve]. In the case of `Cc1ccc(C(=O)OCC(=O)NC(C)C)cc1S(=O)(=O)N1CCOCC1`, the Potency is reported as inconclusive: 70.8 µM [inhibitor, partial curve]. For `O=C(CCn1cnc2onc(-c3ccc(F)cc3)c2c1=O)N1CCN(c2ccccc2)CC1`, the Potency was inconclusive: 25.1 µM [inhibitor, full curve, poor fit]. With `CCOC(=O)CN1NC2(CCCCCC2)NC1=S` the Potency was active: 50.1 µM. With `Cc1nn(Cc2ccc(Cl)cc2)c2sc(C(=O)O)cc12` the “activity change, negative = inhibition” value was inactive: -22.7%. With `COC(=O)c1ccc2c(=O)n(CCCCCC(=O)O)c(=S)[nH]c2c1` the Potency was active: 50.1 µM. With `Cc1ccc(OCCSc2nc3ccccc3n2CC(=O)N2CCCCC2)c(C)c1` the “activity change, negative = inhibition” value was inactive: -30.5%. For `COc1ccc(CCNC(=O)CN2C(=O)c3ccccc3S2(=O)=O)cc1OC`, the “activity change, negative = inhibition” value was inactive: -6.03%. In the case of `Cc1cc2ncn(S(=O)(=O)c3ccc(S(=O)(=O)N4CCOCC4)cc3)c2cc1C`, the “activity change, negative = inhibition” value is reported as inactive: -11.9%. With `Cc1ccc(S(=O)(=O)N2CCN(c3ccccc3)CC2)s1` the “activity change, negative = inhibition” value was inactive: -7.82%. With `COc1ccc(NC(=S)Nc2cccnc2)c(OC)c1` the “activity change, negative = inhibition” value was inactive: -2.04%. For `CCC(NC(=O)Nc1ccc(O)cc1)(C(F)(F)F)C(F)(F)F`, the “activity change, negative = inhibition” value was inactive: -17.5%. `COc1ccc(C)cc1NC(=O)C(c1ccccc1)N1CCN(CC(=O)N2CCOCC2)CC1` (stereo not given) was tested, and the “activity change, negative = inhibition” value was inactive: -11.7%. For `COc1ccc(N2CCN(CC(O)COc3ccccc3[N+](=O)[O-])CC2)cc1` (stereo not given), the Potency was active: 28.2 µM. For `COc1cc2[nH]c(=S)nc(NCc3cccnc3)c2cc1OC`, the “activity change, negative = inhibition” value was inactive: -4.98%. `CCN(CC)S(=O)(=O)c1ccc(C(=O)NCc2n[nH]c(=S)n2Cc2ccccc2)cc1` was tested, and the Potency was active: 28.2 µM. In the case of `Nc1c(Br)cc(Br)c2c1C(=O)c1c(cccc1S(=O)(=O)O)C2=O`, the Potency is reported as inconclusive: 44.7 µM [inhibitor, partial curve]. For `CCOC(=O)Cn1nnnc1CN(Cc1ccc(OC)cc1)Cc1cc2cc(C)cc(C)c2[nH]c1=O`, the “activity change, negative = inhibition” value was inactive: -20.9%. `CC1=C(C(=O)Nc2ccc(F)cc2)C(c2ccc(C)o2)C2=C(CC(C)(C)CC2=O)N1` (stereo not given) was tested, and the “activity change, negative = inhibition” value was inactive: -5.97%. In the case of `CCN1CCN(c2nc(-c3ccccn3)nc3ccccc23)CC1`, the Potency is reported as inconclusive: 39.8 µM [inhibitor, partial curve]. For `Cc1ccc(S(=O)(=O)c2nc(Cc3ccccc3)oc2N2CCOCC2)cc1`, the Potency was inconclusive: 39.8 µM [inhibitor, full curve]. In the case of `COc1ccc(OC)c(N2CC(O)=C(c3nc4ccccc4s3)C2=N)c1`, the Potency is reported as inconclusive: 56.2 µM [inhibitor, partial curve]. For `O=S(=O)(Nc1nc(-c2sccc2Cl)cs1)c1cc(Cl)ccc1Cl`, the Potency was active: 50.1 µM. `CCCCCCCC1CC(/C(C)=N/NC(N)=O)OC1=O` (stereo not given) was tested, and the Potency was active: 39.8 µM. `COc1cc(C(=O)/C=C/c2cccnc2)ccc1O` was tested, and the “activity change, negative = inhibition” value was inactive: -2.74%. With `Cc1nc2ccc(C(=O)O)cc2c2c1CC(C)S2` (stereo not given) the Potency was inconclusive: 89.1 µM [inhibitor, single point]. With `C[C@@H]1COC(=O)[C@H](Cc2ccc(F)cc2)C/C=C\C[C@@H](CC(=O)NCCO)C(=O)N1` the “activity change, negative = inhibition” value was inactive: -4.23%. In the case of `NC(=O)[C@@H]1CCCNc2c(I)cc([N+](=O)[O-])cc2C(=O)N[C@@H](Cc2ccccc2)C(=O)N[C@@H](Cc2cnc[nH]2)C(=O)N1`, the Potency is reported as inconclusive: 20 µM [inhibitor, partial curve]. With `Cc1nnc(C)n1/N=C/c1ccc(-c2ccccc2Cl)o1` the Potency was inconclusive: 63.1 µM [inhibitor, partial curve, poor fit]. For `COc1ccc(Nc2nc(S(=O)(=O)c3ccc(C)cc3)c(Cl)s2)cc1`, the Potency was inconclusive: 79.4 µM [inhibitor, partial curve]. `O=[n+]1cc(-c2ccc(Cl)cc2)n([O-])c2c1CCC2` was tested, and the Potency was inconclusive: 89.1 µM [inhibitor, single point]. For `CCOc1ccc2[nH]c3c(N4CCc5ccccc5C4)ncnc3c2c1`, the Potency was inconclusive: 39.8 µM [inhibitor, full curve, poor fit]. In the case of `Cc1ccc(-c2nc3c(c(SCC(=O)N(C)c4ccccc4)n2)Cc2c(CO)cnc(C)c2O3)cc1`, the Potency is reported as inconclusive: 56.2 µM [inhibitor, partial curve]. For `COC(=O)/C(=C\c1c(OC)cc(OC)cc1OC)C(=O)c1ccc2c(c1)OCO2`, the Potency was inconclusive: 14.1 µM [inhibitor, partial curve]. For `Cc1ccccc1-n1c(-c2csc(C)c2C)n[nH]c1=S`, the Potency was active: 50.1 µM. For `Cc1ccc(-c2nn(C)c(=O)c3ccccc23)cc1S(=O)(=O)NCCN1CCOCC1`, the “activity change, negative = inhibition” value was inactive: -33.7%. `CCOc1ccc(CN2CCc3nc(N4CCN(c5ncccn5)CC4)ncc3C2)cc1OC` was tested, and the Potency was inconclusive: 63.1 µM [inhibitor, partial curve, poor fit]. In the case of `Cc1ccc(-c2c(C(=O)N3CCN(c4cccc(C)c4)C(C)C3)oc(=O)c3ccccc23)cc1` (stereo not given), the Potency is reported as inconclusive: 12.6 µM [inhibitor, partial curve]. In the case of `COc1ccc(CNCc2ccccc2C(F)(F)F)cc1`, the Potency is reported as active: 28.2 µM. In the case of `CNC(=O)COC(=O)c1c2c(nc3ccccc13)CCC2`, the Potency is reported as inconclusive: 63.1 µM [inhibitor, partial curve, poor fit]. For `Cc1cc(=O)[nH]c2ccc(S(=O)(=O)N3CCOCC3)cc12`, the “activity change, negative = inhibition” value was inactive: 8.33%. `COc1cc(CN2CCNC(=O)C2CC(=O)N(C)CCC2CCOCC2)cc(OC)c1` (stereo not given) was tested, and the Potency was inconclusive: 12.6 µM [inhibitor, full curve]. With `CCC(CO)Oc1cc(NCc2ccc(O)cc2)c2ncn(C(C)C)c2c1` (stereo not given) the Potency was inconclusive: 56.2 µM [inhibitor, partial curve]. For `CCOC(=O)N1CCC(NC(=O)Cn2ncc3ccccc32)CC1`, the “activity change, negative = inhibition” value was inactive: -20.3%. For `Cc1nc2sc(C(=O)O)c(N)c2c2c1COC(C)(C)C2`, the Potency was active: 14.1 µM. With `O=C(O)CCC(=O)NNC(=O)COc1cccc(Cl)c1` the “activity change, negative = inhibition” value was inactive: -10.7%. For `CN(C)c1ccc(C2C3=C(CCCC3=O)OC3=C2C(=O)CCC3)cc1`, the Potency was inconclusive: 70.8 µM [inhibitor, single point]. `O=C(/C=C/c1cn(CC(O)CN2CCCCC2)c2ccccc12)c1ccccc1` (stereo not given) was tested, and the Potency was inconclusive: 89.1 µM [inhibitor, partial curve]. In the case of `Fc1ccc(N/N=C/c2ccc(N3CCOCC3)cc2)c(F)c1`, the Potency is reported as inconclusive: 56.2 µM [inhibitor, partial curve]. With `COc1ccc(NC(C)=O)cc1NC(=O)CSc1nnc(-c2ccccc2)n1N` the “activity change, negative = inhibition” value was inactive: -2.09%. With `COc1cc(C(CC(=O)NCc2ccccc2)N2Cc3ccccc3C2=O)cc(OC)c1OC` (stereo not given) the “activity change, negative = inhibition” value was inactive: -5.86%. In the case of `COc1ccc2c(c1)C1CC(C)(NC(=O)C1S(=O)(=O)c1ccc(F)cc1)O2` (stereo not given), the Potency is reported as inconclusive: 89.1 µM [inhibitor, partial curve, poor fit]. With `COc1ccc(C(=O)NCC(=O)OCC(=O)NCc2ccc3c(c2)OCO3)cc1` the “activity change, negative = inhibition” value was inactive: -0.699%. With `CCN(CC)c1ccc(/C=N\NC(=O)c2cccc3cc[nH]c23)cc1` the “activity change, negative = inhibition” value was inactive: -17%. `Cc1ccc(/C=C(\NC(=O)c2ccc(C)cc2)c2nc(=S)[nH][nH]2)cc1` was tested, and the Potency was inconclusive: 50.1 µM [inhibitor, partial curve]. With `Cn1cc(/C=C/c2cc[n+](C)cc2)c2cc(Cl)ccc21` the Potency was inconclusive: 28.2 µM [inhibitor, partial curve]. In the case of `O=S(=O)(c1cccs1)N1CCCc2cccc(O)c21`, the Potency is reported as inconclusive: 22.4 µM [inhibitor, full curve]. `Cc1cccc(C(=O)N/N=C/c2ccccn2)c1` was tested, and the Potency was inconclusive: 63.1 µM [inhibitor, partial curve, poor fit]. In the case of `COc1ccc(-n2cc(C(=O)N(CCN(C)C)Cc3ccccc3)c3ccccc3c2=O)cc1`, the Potency is reported as inconclusive: 25.1 µM [inhibitor, full curve]. For `COc1ccc(C(=O)N2CCCC(C(=O)N3CCN(c4ccccc4)CC3)C2)cc1` (stereo not given), the “activity change, negative = inhibition” value was inactive: 5.05%.
